This is one part of the list.
These sequences were tested on PfHDP1 homeodomain (GST-tagged) (assay: gcPBM binding intensity (ln(normalized median fluorescence intensity)); higher = stronger DNA binding).
Method in brief: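 Using an Agilent 4 × 180k array, primer-extended double-stranded 36-bp intergenic genomic probes and negative controls were exposed for 1 h to GST-fused P. falciparum DNA-binding domains expressed in E. coli. Binding was carried out in 1× PBS with 1% milk, 0.2 mg/ml BSA, 0.5% salmon testes DNA and 0.03% Triton X-100, and protein was detected with Alexa488 anti-GST antibody and a 488 nm scan. Binding intensity is the highest Masliner-normalised natural-log median intensity across replicate spots of either probe orientation.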

Sequence	gcPBM binding intensity (ln)
AAAAAGGAAATTTACACACACATATAATATACATTA [CACACA_site3296]	6.59
ATTTACCAGACCATATGTACATACATAAAACACACA [XGTACX_site3788]	7.07
GGAATTGAAAAATCAGCACACACACTAATACATACA [CACACA_site9059]	6.78
AATAATTGTTAAAGGTGTACAATACCTACATAAGAA [XGTACX_site4215]	7.04
AAATGGCAATAATGGACACACAAATGTTGTTATATA [CACACA_site2819]	6.33
GAATAATTAAAAGGTAGTACAAAGGTTATCAAAAGG [XGTACX_site8496]	6.95
GATATGATTATGTGATGGTGTTTTTGATAGATATTT [CACACA_negctrl_site1445]	6.77
AGAAAACCGAAAGAGACACACAACATGTCGATTTAG [CACACA_site3764]	6.17
TTGTTCTTTTGAAAGGTGCAAAAGAAAAATAATTAA	9.53
CTTTTTTTTTTGGGGGTGCATGCAAGACATATATTT [GTGCAC_site9660]	9.02
ACATAACTTATATATACACACAATACAAATATATAT [CACACA_site2774]	7.05
ATAATTTCTATTTCACAAAAAAAAAAAAAAAAAAAA [CACACA_negctrl_site1012]	6.05
ACTAAAAGGCTTAAATGTACATATTATATATATATA [XGTACX_site5897]	8.71
GTTTTTGAGTAGTACACACACAATAAGGATGGATTC [CACACA_site3192]	6.69
ACATCTAGGCTTATTTTATGATACATGTGAATATAT [TGCATGCA_negctrl_site325]	6.32
ATATATATATGTTAGGTGCATATATATTTTGTGGAT [GTGCAC_site9964]	9.74
AATAATATTAATAAAAGTACATGTGTAATATATATA [XGTACX_site5922]	7.31
ATAAAAACTACATTCACACAAAAAAAAATCTACAAA [CACACA_site6109]	6.53
ATAAAGATAATATATGCACACATATAAATATATAAA [CACACA_site9153]	9.85
ATATATATAATATATTGTACATATAATATATATATA [XGTACX_site4792]	8.05
AATTTTCAATAGTATACACACAATTATATATATATA [CACACA_site1116]	8.78
TCTTTTCTCGGAAGGGTGCAAGGAATTAATGAAATA [GTGCAC_site9706]	7.37

Sequence	gcPBM binding intensity (ln)
TCAATAAATATACATACATGCATACATACATACATA [TGCATGCA_site197]	6.53
GAACATTTATTGTGTGTGCACAATTCTTTTTTAACC [GTGCAC_site9697]	10.2
TGTGTTAATATGAATTTAAACATAAATAAATAAATA [CACACA_negctrl_site1589]	6.24
ATGTTTAATTAAATATGTACTTATTATATTATATGT [XGTACX_site8137]	6.3
TTTAATTTTTATATAACACACATATTGTAATTATGT [CACACA_site4566]	6.46
AGGAATCTACATATATGTACATATATTGATATATTT [XGTACX_site137]	6.45
TATATATGTAGACGTTGTACTTTTTTGTAAGTTTAA [XGTACX_site5638]	6.2
AAAATAAAATCATAAAGTACAAAAAGAAAATAAAAA [XGTACX_site7376]	6.98
CATGACATATCCTGTAGTACAACGTATATATAAGAT [XGTACX_site2577]	6.59
TTTAAATTTTTATATTGTACTTTATTTATTTATTTA [XGTACX_site869]	6.22
TGTGTCAAGTTTAATAAACGCATATAATATATATGA [CACACA_negctrl_site607]	6.51
AATGTTTAATATAACGCATGCCTTAATATAGAATGC [TGCATGCA_site463]	6.38
TTTTTTTGCGCGGGAAGAATAAAATTTATAGAATAT [TGCATGCA_negctrl_site306]	6.7
CAGACATTAATAAGTAGTACACAATAATTGACTAGG [XGTACX_site854]	6.44
AATTTACACGTACGTGTACACACAAAAATATGTTTT [CACACA_site8242]	7.37
TATTTTTATAAAAACTGTACATAATAAATAAAAATA [XGTACX_site4743]	6.8
AATCAAAGTAATTTAACACACAATTTTAATACTGTT [CACACA_site7169]	6.23
TTATATGTTTCTTCACGTACGTATAAAAATGAACTT [XGTACX_site1764]	6.55
TATCATGTGCGTGCGTGTACTTAACACACATAATAT [XGTACX_site2404]	7.59
TCATTTATTTTAAGGTGTACCGTTTAAAATCACAAA [XGTACX_site3243]	6.16
ATATTGACAAATATTACACACATATATATATATATA [CACACA_site4079]	9.39
TTGTTCATTATGCACAGTACATAAAAAGTAAAAAAA [XGTACX_site2403]	10.2

Sequence	gcPBM binding intensity (ln)
GTTTAACTGTTTTATACACACAATGTAGACAATAAA [CACACA_site8967]	6.97
TAAATACATTGACACACACACAAATATGTACATACA [CACACA_site7371]	6.93
ACTTGATTACACAACCACAAGTAATTGAAATTATTT [XGTACX_negctrl_site297]	6.92
GTACAAAAAAAGTGTACACAAAGTAAGACTTTAATT [CACACA_site5068]	6.7
CACTGTAAATAGAAAGTGCAAAAATTGTAAATAAAA [GTGCAC_site9980]	9
TTTCTAAATAATATACACAAAAAAATAAAACACTAA [TGCATGCA_negctrl_site43]	7.18
TGAAAAGATAAAAAATGTACATATATATTATATATA [XGTACX_site5678]	6.71
ATACACAATTATTTTCCTATTATGCAAGCAAATTTA [CACACA_negctrl_site1176]	6.74
TTTCTAATTTATATCACACACATATATAAATAGTAA [CACACA_site6156]	6.54
ATATATATAATTTAAAGTACATATTTAAGAATGAAA [XGTACX_site2238]	6.45
AGTAATAATATAATTTGTACATATATATATTATAAA [XGTACX_site7138]	6.48
TACAAAAATGTAGTCACACATATGTATACTTTTATG [CACACA_site5607]	6.27
AGTTTTATGTAGTGTTGTACTTTATACAAATATATA [XGTACX_site990]	6.51
GTATATAATTTATATTGTACGCATATTATTATCATT [XGTACX_site7277]	6.44
TCATTTTACAGATGTGCATGTGAATCAATCTATTTA [TGCATGCA_site787]	7.27
AAAAAAAAAAAAAAAACACACAAACAAATGAATAAA [CACACA_site5769]	6.46
AATATACAAATTACAAGTACAAATCAATATTATATG [XGTACX_site7521]	6.37
TGTAGTTTTTATTTATGTACGCATAACATAATTTAA [XGTACX_site104]	6.5
TATATATATAAATACACACACACATATATATATATA [CACACA_site4585]	9.16
ATTTCTATATATTGTGCATGCCATTACACCAAATAT [TGCATGCA_site813]	7.84
AGAATTTAGAAACAATGTTGTATATGTAATACCTTT [XGTACX_negctrl_site149]	6.23
GATATTATGTGTTTGGTATTTCGATCTTGTCAGGAC [CACACA_negctrl_site426]	6.59

Sequence	gcPBM binding intensity (ln)
TATATATATAAAAAAAGTACGTATTTAATAAAAATA [XGTACX_site4992]	6.69
TTTTTAATTCAAAAAACTGTATGTTATATGTCAAAT [CACACA_negctrl_site72]	6.31
TTCATTTTATTTTAAGTGCATATTTTTATTTTTTTG	8.02
TAGTATGATAACTTGGGTACATAAATATGGAGTATC [XGTACX_site1296]	6.81
AGAAAGGATATTATATGTACATATCTTTGTATTTTT [XGTACX_site5040]	6.52
CATACCCATAAACACACACACATATATACCTATATA [CACACA_site4745]	6.87
ATCATACCTTTTAATGTACACACATTTCTTTTTTGT [CACACA_site8198]	7.12
TATATAAATAAAAAAAGTACATTACTTTTTAATTTA [XGTACX_site285]	5.88
TTTTATTTGACAAGCACACACTTAAATATATATATA [CACACA_site5792]	8.09
AAACAAAAAATAAAATGTACATTTATTACGATAAGT [XGTACX_site2392]	7.12
ATGGAATAATCACGTACACACAAGAAAAAAAAAAAT [CACACA_site527]	6.62
GGATAATATATTAGAACACACATATATATGTAAAAA [CACACA_site185]	6.91
ATTACAAATACAAACACACAAATGTTTTTCATTCAA [CACACA_site7639]	6.49
TTTACATATTTATATACACACTTTTGCGTGCGTGGT [CACACA_site6647]	7.06
AATAAAATATATTCCTGTACATATGATTCTTTTTTT [XGTACX_site7980]	6.53
ATACATATATATATATGTACATATGTATTTTTTATT [XGTACX_site105]	6.72
ACTATACAGTTATACACACACATATATCTATAATAT [CACACA_site6283]	7.32
TAGTATAATATGAACACACACACACCGACAAAAAAA [CACACA_site5151]	7.19
ATATAATTTATATATTCACACAAGGAATACTTTTAT [CACACA_site5506]	6.23
AATTGAAAAAGAAATTGTACATTTTATTTTTATTAT [XGTACX_site1973]	6.18
ATATATATATATATATGTACTTATGTCATCATTAAA [XGTACX_site5316]	9.37
CATTTAAAATTTGTTTGTACATATATATATATATAT [XGTACX_site6729]	9.34

From the supplement of paper PMC11417369
